This series relates to ATP. Nature of the series: switch fluorescence ratio, 500 uM ATP over buffer (Cy3 cluster intensity, sum of 5 cycles each) (fold (ratio)); higher = stronger signal-on switching upon ATP binding; sequences stand for … in TCGTCGGCAGCGTCAGATGTGTATAAGAGACAGTTTTTTTTTTTTTTTTTTTTTTTTT…TC. Conditions: aptamer strand: ATP DNA aptamer (quencher-CACCTGGGGGAGTATTGCGGAGGAAGG + anchor), 100 nM annealed; ATP concentration: 500 uM; one replicate. The procedure, abridged: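 Exposure to 500 uM ATP lasted 15 min at 22 °C before imaging, and a selection-buffer image was taken beforehand, for Cy3-labelled switching-strand clusters on a modified Illumina MiSeq flow-cell annealed to 100 nM quencher-labelled ATP aptamer. Five buffer/ATP cycles were run with NaOH stripping and re-annealing between them. The fluorescence ratio per cluster is summed target-cycle over summed buffer-cycle Cy3 intensity, averaged per switch-domain sequence. Clusters outside 100-1000 RFU were excluded.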

Values marked as one replicate rest on one cluster of the flow cell; about a third of the high ones do not repeat.

As to CGGTTAGTCT, the switch fluorescence ratio was determined as 1.03.

In the case of GTTGTGCGGA, the switch fluorescence ratio is 0.977.

For CTGTGCTTTG, the switch fluorescence ratio is 1.05. As for AAGACAAAGC, the switch fluorescence ratio stood at 1.01. The result for TTAGCATTG reads 1.02. Take AAAATTATAG: the switch fluorescence ratio was found to be 0.975. With TTTGGCCTTT, the switch fluorescence ratio worked out at 0.965.

Take CTTTTCATCC: the switch fluorescence ratio stood at 0.998. For CGTATCAGGA, the switch fluorescence ratio is 0.989. Regarding TCAAGCAAGT, the switch fluorescence ratio came to 1.2. In the case of AGTGATTGTA it was 0.967; in that of GCATAGCACA, 1.04; in that of GGGCGGGCCT, 0.961. As to TAGATAAGTC, the switch fluorescence ratio turned out to be 0.948. In the case of CACGTCTGTG it was 0.991; in that of CTCAATTCAC, 1.12. As for GTATGGAAAC, the switch fluorescence ratio is 1.01. In the case of CGTAACGAGC it was 0.976; in that of TAATCCTTTT, 0.998; in that of CCAAGGGCGC, 1. In the case of AATAAAGTGG, the switch fluorescence ratio is 1. In the case of CCTAGTTAAA it was 0.985; in that of CCATACGAGC, 1; in that of ATTCGACTGC, 1.03. GTAGGCGTTA: the switch fluorescence ratio was found to be 0.981.

With ACCTTTTGGG, the switch fluorescence ratio came out at 1.09.

As to AGTTACCTAC, the switch fluorescence ratio was 1.27. The result for GCCATTTCGC reads 0.992; that for CACGGGGTTA, 1.02. The result for TCGGAAAAT reads 1.03; that for TGAATTTATC, 0.982. For the sequence CGCATATTA, the switch fluorescence ratio was 1.48. In the case of TGAGGTTGTG it was 1.09; in that of CTCTACCTCA, 1.04.

For TTCAAATTAG, the switch fluorescence ratio was 1. The result for GATAGGACAA reads 1.02; that for ATTTCCTAGT, 1.03; that for GTATGCAGAG, 0.931.

As for AAAAACTATA, the switch fluorescence ratio stood at 0.979. As for AGACATTTGG, the switch fluorescence ratio amounted to 0.967. With TGCAGACCTT, the switch fluorescence ratio came out at 1.17. Regarding TCGGTTTCGC, the switch fluorescence ratio came out at 1.

Consider ATTACAGCCC, for which the switch fluorescence ratio stood at 1.03. Turning to GGTAAGACAG, the switch fluorescence ratio was 0.932. In the case of ATCGAAGACG it was 0.994. In the case of ACTGAATAAC it was 1.01; in that of TATGAACCTA, 1.08; in that of AGGCGAGTCC, 0.99. In the case of TAAGTATTAG it was 0.965; in that of CCTATGATCT, 1; in that of TGATACGAGG, 1.03. In the case of CTACCGCGGA, the switch fluorescence ratio was determined as 3.3. The result for CGCCCGGCCT reads 0.887. In the case of GCCCGATG, the switch fluorescence ratio came out at 1.03. On to CTACTTCGCG, for which the switch fluorescence ratio turned out to be 1.09. In the case of AGGAATTGGG it was 0.964. In the case of GAATTATGCT it was 0.963; in that of CCAAAGCCGC, 2.32. In the case of CAAGCGAGTT it was 0.968; in that of TGCACCTATT, 1.05; in that of TCGTCCTTCG, 1.28. For GGTCAAATTC, the switch fluorescence ratio came out at 1.01. For the sequence CCGTCTTAAC, the switch fluorescence ratio is 1.4. With ATGTACCCTA, the switch fluorescence ratio turned out to be 1.1.

For TCAGGTCCGG, the switch fluorescence ratio was 1.02. The result for CCGTTGGTGC reads 1.49. In the case of GTATGGTGT it was 0.998; in that of CGTGATCCCA, 1.01; in that of AACCTGTCTT, 1.02. The result for GGTATGAGCG reads 1.05. For ATACTTTGG, the switch fluorescence ratio was found to be 1.03. The result for GCGTAGACGG reads 0.945; that for TTCCGTTCTA, 1.04; that for GCCTCATTTA, 1.06.

As for GTTTTAGGA, the switch fluorescence ratio was found to be 1.01.

As to GGAATGGGCC, the switch fluorescence ratio was determined as 0.962. In the case of ACAATACTTG it was 1.09; in that of TACATACCAT, 1.41.

The values are drawn from the supplement of paper PMC10126150.
